PubChem BioAssay (Tox21)
Several values for one entry are separate records, joined by “and”; a condition that tells them apart may be missing. Equal values may be shown once. This list was built around the results that the source calls inconclusive (neither active nor inactive); the mix of calls is not that of the screen. Potencies beside an inconclusive call are fits to weak or partial responses and may not hold up. Activity calls are given as the source filed them. Unless noted, calls follow the shape of the dose curve; as a rule, active = well fitted curve in the direction sought with a large enough effect in the repeat runs; inconclusive = weak or mixed curves; inactive = no such curve, though single readings can be large; an effect the other way counts as inactive or inconclusive. Bridge positions count the residues as written; N and C are the ends. Square brackets hold non-standard residues; d marks the D form. Peptide text beside a SMILES is read from it. Orn = NCCC[C@H](N)C(=O)O; Mpa = O=C(O)CCS
Potency is read from the fitted curve at half-maximal effect; tags tell the direction and shape of the fitted curve.

Target: Estrogen receptor (Homo sapiens) (UniProt P03372)
UniProt P03372, sequence (P03372 whole entry, looked up): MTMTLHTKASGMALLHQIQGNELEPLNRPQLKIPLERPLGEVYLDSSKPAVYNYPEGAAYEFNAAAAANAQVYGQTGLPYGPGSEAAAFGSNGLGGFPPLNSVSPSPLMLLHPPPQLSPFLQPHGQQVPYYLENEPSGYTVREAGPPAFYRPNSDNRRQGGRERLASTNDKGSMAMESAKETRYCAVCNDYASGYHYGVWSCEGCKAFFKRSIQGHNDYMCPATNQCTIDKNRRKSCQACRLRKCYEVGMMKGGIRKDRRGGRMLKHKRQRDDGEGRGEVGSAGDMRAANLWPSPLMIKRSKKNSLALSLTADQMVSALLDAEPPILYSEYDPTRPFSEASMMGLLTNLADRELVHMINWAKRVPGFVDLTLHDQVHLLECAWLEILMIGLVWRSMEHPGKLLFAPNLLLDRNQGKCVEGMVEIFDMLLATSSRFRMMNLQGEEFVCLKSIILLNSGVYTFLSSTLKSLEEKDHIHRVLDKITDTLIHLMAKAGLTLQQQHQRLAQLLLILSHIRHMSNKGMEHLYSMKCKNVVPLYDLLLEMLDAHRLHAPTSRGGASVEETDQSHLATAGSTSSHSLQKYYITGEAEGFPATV
Assay: qHTS assay to identify small molecule agonists of the estrogen receptor alpha (ER-alpha) signaling pathway using the BG1 cell line (AID 743079); also: nearly all actives have a fitted effect of over 20% in size; as to activation: % is scaled to controls: 0 for no effect and ±100 for the full control effect
Settings: BG1Luc4E2 cells, ERE-luciferase agonist, 22 h; activation: at 70.3 µM (top of the series) unless noted
For `CCCCCCCC[N+](C)(C)CCCCCCCC`, the Potency was inconclusive: 26.6 µM [inhibitor, partial curve] and inconclusive: 23.7 µM [inhibitor, partial curve]. In the case of `Cc1cc(-n2c(=O)[nH]c(=O)n(C)c2=O)ccc1Oc1ccc(S(=O)(=O)C(F)(F)F)cc1`, the Potency is reported as inconclusive: 29.8 µM [inhibitor]. For `O=C1NCCN1c1ncc([N+](=O)[O-])s1`, the Potency was “inactive”. In the case of `CCC(O)c1ccccc1` (stereo not drawn), the Potency is reported as “inactive”. With `CCCCC(=O)O[C@H]1CC[C@H]2[C@@H]3CCc4cc(O)ccc4[C@H]3CC[C@]12C` the activation was active: 61.2%.

System: not listed separately
Assay: qHTS assay to identify small molecule antagonists of the estrogen receptor alpha (ER-alpha) signaling pathway using the BG1 cell line (AID 743080; calls by dose curve;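 also: BG1 cells stimulated with 17beta-estradiol alongside compound; nearly all actives have a fitted effect of over 25% in size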; as to activity change, negative = inhibition: % is scaled to controls: 0 for no effect and ±100 for the full control effect)
Settings: BG1Luc4E2 ERE-luciferase antagonist mode, luminescence; activity change, negative = inhibition: at 70.3 µM (top of the series) unless noted
Method in brief: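 After 5 days in phenol-red-free 10% charcoal-stripped FBS medium, BG1-Luc-4E2 cells were seeded, left 24 h at 37 C, co-treated with compounds and 17beta-estradiol for 21.5 h, then assayed for viability and luciferase.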
For `CC#CCC(C)[C@H](O)/C=C/[C@@H]1[C@H]2c3cccc(CCCC(=O)O)c3O[C@H]2C[C@H]1O` (stereo partly drawn), the Potency was inconclusive: 0.75 µM [rising, full curve]. In the case of `COc1cc(NCCCC(C)N)c2ncccc2c1` (stereo not drawn), the Potency is reported as inconclusive: 26.6 µM [falling, partial curve]. In the case of `CC(=O)NC[C@H]1CN(c2ccc(N3CCOCC3)c(F)c2)C(=O)O1`, the Potency is reported as “inactive”. For `CCN1C(=O)NC(c2ccccc2)C1=O` (stereo not drawn), the Potency was “inactive”. For `O=C(CO)[C@@H](O)[C@H](O)[C@@H](O)C(=O)O`, the Potency was “inactive”. In the case of `Cc1cc(-n2c(=O)[nH]c(=O)n(C)c2=O)ccc1Oc1ccc(S(=O)(=O)C(F)(F)F)cc1`, the Potency is reported as inconclusive: 29.8 µM [falling, partial curve]. In the case of `O=C(O)CCC/C=C\C[C@@H]1[C@@H](/C=C/[C@@H](O)COc2cccc(C(F)(F)F)c2)[C@H](O)C[C@@H]1O`, the Potency is reported as inconclusive: 9.44 µM [rising, full curve].

System: not listed separately
Assay: qHTS assay to identify small molecule antagonists of the estrogen receptor alpha (ER-alpha) signaling pathway using the BG1 cell line - cell viability counter screen (AID 743081);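 also: compound given together with 17beta-estradiol as the ER stimulus; nearly all actives have a fitted effect of over 45% in size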; as to activity change, negative = cytotoxicity: % is scaled to controls: 0 for no effect and ±100 for the full control effect
Settings: BG1Luc4E2 viability, CellTiter-Fluor, 22 h; activity change, negative = cytotoxicity: at 70.3 µM (top of the series) unless noted
In the case of `COc1cc(NCCCC(C)N)c2ncccc2c1` (stereo not drawn), the Potency is reported as active: 18.8 µM. With `CN(CC(=O)N1CCOCC1)Cc1c(Cl)cccc1NC(=O)c1ccccc1` the Potency was “inactive”. With `CC(=O)Oc1cc(C(F)(F)F)ccc1C(=O)O` the Potency was “inactive”. In the case of `CCCCCCCC[N+](C)(C)CCCCCCCC`, the Potency is reported as inconclusive: 18.8 µM [cytotoxic, single point]. In the case of `C=CC[N@@+]12CC[C@@]34c5ccccc5N5/C=C6/[C@H]7C[C@H]8[C@@]9(CC[N@@+]8(CC=C)C/C7=C/CO)c7ccccc7N(/C=C(/[C@@H](C[C@@H]31)/C(=C\CO)C2)[C@H]54)[C@@H]69`, the Potency is reported as inconclusive: 0.101 µM [rising, full curve]. For `COC(=O)C1=C(C)NC(C)=C(C(=O)O[C@H]2CCN(Cc3ccccc3)C2)[C@H]1c1cccc([N+](=O)[O-])c1`, the Potency was inconclusive: 29.8 µM [cytotoxic, partial curve, poor fit].

Target: Aromatase (Homo sapiens) (UniProt P11511)
UniProt P11511, sequence (P11511 whole entry, looked up): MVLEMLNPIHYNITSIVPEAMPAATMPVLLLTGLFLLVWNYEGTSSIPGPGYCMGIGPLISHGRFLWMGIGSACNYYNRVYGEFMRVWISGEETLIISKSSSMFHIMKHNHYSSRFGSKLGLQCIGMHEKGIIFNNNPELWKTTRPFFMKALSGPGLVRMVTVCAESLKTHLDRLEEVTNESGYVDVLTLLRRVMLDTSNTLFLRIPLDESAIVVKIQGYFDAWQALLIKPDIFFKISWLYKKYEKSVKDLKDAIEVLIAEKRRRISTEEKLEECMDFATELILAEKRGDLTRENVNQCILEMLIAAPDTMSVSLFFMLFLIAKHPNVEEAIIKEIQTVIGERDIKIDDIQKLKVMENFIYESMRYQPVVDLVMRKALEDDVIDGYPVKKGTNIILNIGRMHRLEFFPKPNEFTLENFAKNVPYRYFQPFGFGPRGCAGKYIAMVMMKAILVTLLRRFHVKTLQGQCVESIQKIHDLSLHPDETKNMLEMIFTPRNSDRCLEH
Assay: qHTS assay to identify aromatase inhibitors (AID 743083); also: nearly all actives have a fitted effect of over 55% in size
Settings: MCF-7 aro ERE, testosterone-driven ERE luciferase, 24 h; series mostly up to 70.3 µM
For `COc1cc(NCCCC(C)N)c2ncccc2c1` (stereo not drawn), the Potency was inconclusive: 16.8 µM [inhibitor]. In the case of `CN(CC(=O)N1CCOCC1)Cc1c(Cl)cccc1NC(=O)c1ccccc1`, the Potency is reported as inconclusive: 33.5 µM [inhibitor, partial curve, poor fit]. With `Cc1cn([C@H]2C[C@H](O)[C@@H](CO)O2)c(=O)[nH]c1=O` the Potency was “inactive”. With `CCOC(=O)c1cc(-c2ccccc2)nc2ccc(C)cc12` the Potency was “inactive”. In the case of `C[C@@H]1C(=O)NC2=Nc3cccc(Cl)c3CN21`, the Potency is reported as “inactive”.

System: not listed separately
Assay: qHTS assay to identify aromatase inhibitors - cell viability counter screen (AID 743084);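 also: cells stimulated with testosterone during compound exposure; nearly all actives have a fitted effect of over 55% in size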
Settings: MCF-7 aro ERE viability, CellTiter-Fluor, 24 h; activity change, negative = cytotoxicity: at 70.3 µM (top of the series) unless noted
With `COc1cc(NCCCC(C)N)c2ncccc2c1` (stereo not drawn) the Potency was inconclusive: 26.6 µM [cytotoxic, partial curve]. For `CCCCCCCC[N+](C)(C)CCCCCCCC`, the Potency was inconclusive: 18.8 µM [cytotoxic, partial curve] and inconclusive: 33.5 µM [cytotoxic]. In the case of `COC(=O)C1=C(C)NC(C)=C(C(=O)O[C@H]2CCN(Cc3ccccc3)C2)[C@H]1c1cccc([N+](=O)[O-])c1`, the Potency is reported as inconclusive: 33.5 µM [cytotoxic, single point].

Target: Aryl hydrocarbon receptor (Homo sapiens) (UniProt P35869)
UniProt P35869, sequence (P35869 whole entry, looked up): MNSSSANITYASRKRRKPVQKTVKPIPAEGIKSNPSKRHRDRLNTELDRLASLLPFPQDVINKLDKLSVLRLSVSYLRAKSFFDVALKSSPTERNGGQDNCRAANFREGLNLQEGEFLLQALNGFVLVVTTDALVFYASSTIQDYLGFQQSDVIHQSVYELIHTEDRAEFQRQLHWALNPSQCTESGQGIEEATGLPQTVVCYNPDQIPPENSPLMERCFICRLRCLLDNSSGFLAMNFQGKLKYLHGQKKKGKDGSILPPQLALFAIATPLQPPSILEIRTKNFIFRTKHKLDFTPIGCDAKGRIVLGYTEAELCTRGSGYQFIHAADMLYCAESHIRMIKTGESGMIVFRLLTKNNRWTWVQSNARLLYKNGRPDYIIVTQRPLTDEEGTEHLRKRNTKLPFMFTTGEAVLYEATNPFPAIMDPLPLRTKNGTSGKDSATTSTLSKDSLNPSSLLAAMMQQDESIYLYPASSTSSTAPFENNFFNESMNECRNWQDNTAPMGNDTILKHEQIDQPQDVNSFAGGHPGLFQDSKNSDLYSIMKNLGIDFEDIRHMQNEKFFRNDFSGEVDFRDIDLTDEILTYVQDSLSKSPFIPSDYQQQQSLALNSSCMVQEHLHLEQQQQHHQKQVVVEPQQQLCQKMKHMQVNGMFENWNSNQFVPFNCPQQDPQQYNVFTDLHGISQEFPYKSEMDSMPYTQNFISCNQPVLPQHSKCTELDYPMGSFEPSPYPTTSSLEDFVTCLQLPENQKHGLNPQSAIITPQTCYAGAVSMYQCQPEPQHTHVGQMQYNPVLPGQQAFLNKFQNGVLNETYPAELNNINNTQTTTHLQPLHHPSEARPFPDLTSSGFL
Assay: qHTS assay to identify small molecule that activate the aryl hydrocarbon receptor (AhR) signaling pathway (AID 743085); also: nearly all actives have a fitted effect of over 15% in size;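 as to activation: HG2L7.5c1 human HepG2 liver cells with stably integrated DRE-driven firefly reporter; % is scaled to controls: 0 for no effect and ±100 for the full control effect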
Settings: HepG2 AhR-luc (HG2L7.5c1), luciferase, 24 h; series mostly up to 70.3 µM
Method in brief: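 Measured in HG2L7.5c1 cells: CellTiter-Fluor signal (30 min incubation, 37C) for viability, then luciferase luminescence (30 min, room temperature). Compound contact time was 24 h at 37C, following a 5 h pre-incubation.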
With `Oc1ccc(Cl)c2c1CCC2` the Potency was inconclusive: 2.98 µM [activator, full curve, poor fit]. For `CN(CC(=O)N1CCOCC1)Cc1c(Cl)cccc1NC(=O)c1ccccc1`, the Potency was active: 13.3 µM. With `Cc1cc(-n2c(=O)[nH]c(=O)n(C)c2=O)ccc1Oc1ccc(S(=O)(=O)C(F)(F)F)cc1` the Potency was “inactive”. In the case of `O.O=C([O-])CC([S-])C(=O)[O-].[Au+].[Na+].[Na+]` (stereo not drawn), the Potency is reported as “inactive”.

System: not listed separately
Assay: qHTS assay to identify small molecule that activate the aryl hydrocarbon receptor (AhR) signaling pathway - cell viability counter screen (AID 743086); also: nearly all actives have a fitted effect of over 45% in size
Settings: HepG2-AhR-luc viability, CellTiter-Fluor, 24 h; series mostly up to 70.3 µM
Method in brief: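 Cytotoxicity counter screen: CellTiter-Fluor signal (30 min, 37 C) in 4000 HepG2 cells/well carrying the DRE-luciferase reporter, following 24 h compound exposure at 37 C.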
For `CCN1C(=O)NC(c2ccccc2)C1=O` (stereo not drawn), the Potency was “inactive”. In the case of `CN(CC(=O)N1CCOCC1)Cc1c(Cl)cccc1NC(=O)c1ccccc1`, the Potency is reported as inconclusive: 33.5 µM [falling, single point]. With `CCOc1ccc(C[C@H]2NC(=O)CCSSC[C@@H](C(=O)N3CCC[C@H]3C(=O)N[C@@H](CCCN)C(=O)NCC(N)=O)NC(=O)[C@H](CC(N)=O)NC(=O)[C@H]([C@@H](C)O)NC(=O)[C@H]([C@@H](C)CC)NC2=O)cc1` ([Mpa][dY](Et)ITNCP[Orn]G-NH2; disulfide 1-6) the Potency was inconclusive: 6.68 µM [rising, single point]. With `CCCCCCCC[N+](C)(C)CCCCCCCC` the Potency was inconclusive: 33.5 µM [falling, single point]. In the case of `C[C@H]1C[C@@H]2[C@H]([C@@H](O)C[C@@]3(C)[C@H]2CC[C@]3(O)C(=O)COC(=O)CCC(=O)O)[C@@]2(C)C=CC(=O)C=C12`, the Potency is reported as inconclusive: 33.5 µM [rising, single point]. For `O.O=C([O-])CC([S-])C(=O)[O-].[Au+].[Na+].[Na+]` (stereo not drawn), the Potency was inconclusive: 23.7 µM [rising, partial curve, poor fit]. With `CCC(O)c1ccccc1` (stereo not drawn) the Potency was “inactive”. In the case of `COC(=O)C1=C(C)NC(C)=C(C(=O)O[C@H]2CCN(Cc3ccccc3)C2)[C@H]1c1cccc([N+](=O)[O-])c1`, the Potency is reported as active: 29.8 µM.
